# According to PubChem BioAssay AID1631 (National Center for Advancing Translational Sciences (NCATS), 2009):
# About 890 (0.34%) of roughly 260,000 compounds were called active. Inconclusive means that the source gave no clear call. Such entries were picked first, then a sample of the others. Calls follow the shape of the dose curve; as a rule, active = well fitted activation curve with a large enough effect; inconclusive = small, poorly fitted or top-dose-only effect; inactive = no such curve, though single readings can be large or run the other way. Potencies of inconclusive entries are left out as doubtful fits.
# Molecular target: Pyruvate kinase PKM (Homo sapiens) (UniProt P14618)
# Sequence of UniProt P14618 (P14618 whole entry, looked up, canonical isoform): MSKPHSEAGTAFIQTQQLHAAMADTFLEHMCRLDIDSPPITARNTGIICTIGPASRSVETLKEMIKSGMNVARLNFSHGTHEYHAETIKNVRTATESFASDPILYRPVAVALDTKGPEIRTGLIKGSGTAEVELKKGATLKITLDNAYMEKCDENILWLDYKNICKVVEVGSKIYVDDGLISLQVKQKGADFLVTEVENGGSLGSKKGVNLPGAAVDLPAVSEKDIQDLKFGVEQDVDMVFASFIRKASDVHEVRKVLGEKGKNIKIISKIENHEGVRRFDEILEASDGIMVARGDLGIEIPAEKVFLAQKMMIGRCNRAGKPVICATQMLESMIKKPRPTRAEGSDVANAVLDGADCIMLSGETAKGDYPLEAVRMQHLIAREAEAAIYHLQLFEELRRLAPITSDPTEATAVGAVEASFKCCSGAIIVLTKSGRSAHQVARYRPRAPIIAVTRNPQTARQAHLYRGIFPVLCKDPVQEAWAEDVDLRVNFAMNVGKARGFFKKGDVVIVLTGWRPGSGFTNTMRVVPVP
# Assay: qHTS Assay for Activators of Human Muscle isoform 2 Pyruvate Kinase; also: nearly all actives have a fitted effect of over 55% in size
# Conditions: purified PKM2, Kinase-Glo ATP luminescence; Potency: activation; activation: at 57.5 µM (top of the series), 0% is enzyme alone, no compound
# Outline: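 Purified hPK-M2 (>95%) run at intermediate activity with 0.1 mM ADP and 0.5 mM PEP in 50 mM imidazole pH 7.2, KCl, MgCl2; 1 h room temperature. ATP formed read by Kinase-Glo luminescence; normalized to uninhibited and no-enzyme controls.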
# % is scaled to controls: 0 for no effect and ±100 for the full control effect; potency is read from the fitted curve at half-maximal effect; tags tell the direction and shape of the fitted curve.
Compound,Potency,activation
O=C(Cn1cc(C(F)(F)F)ccc1=O)N1CCN(S(=O)(=O)c2ccccc2)CC1,"inconclusive [rising, single point]",–
O=C(CNS(=O)(=O)c1cccs1)N1CCc2ccccc2C1,"inconclusive [rising, single point]",–
Cc1cc2oc(=O)sc2cc1NS(=O)(=O)c1cccc2cccnc12,active: 31.6 µM,–
COc1ccc(CNc2nc3ccccc3n2Cc2ccccc2)cc1OC,inactive,–
COc1ccc(N2C(=O)[C@@H]3[C@H](C2=O)[C@H](C(=O)c2ccc(OC(C)=O)cc2)N2N=CC=C[C@@H]32)cc1,"inconclusive [rising, partial curve]",–
Cc1ccc(S(=O)(=O)c2cc3c(=O)n4cccc(C)c4nc3n(Cc3ccco3)c2=N)cc1C,"inconclusive [rising, partial curve, poor fit]",–
O=C(CSc1nccc(=O)[nH]1)N1CCN(c2ccccc2)CC1,inactive,–
Cn1c(=O)oc2cc(S(=O)(=O)Nc3cccc(F)c3)ccc21,active: 12.6 µM,–
O=C(NC1CC1)C1=C[C@@H](c2csc3ccccc23)C[C@@H](OCCCCO)O1,active: 14.1 µM,–
COc1cccc(C2OC(=O)c3ccccc3N2C(C)=O)c1OC(C)=O (stereo not drawn),inactive,–
NC(=O)c1oc2ccccc2c1NC(=O)CCc1ccccc1,"inconclusive [rising, single point]",–
CC1(C)SC(=S)N(c2ccccc2)C1/[N+]([O-])=C/c1cccc([N+](=O)[O-])c1 (stereo not drawn),"inconclusive [rising, single point]",–
C=CCC(NCc1ccccc1)c1ccc(Cl)cc1 (stereo not drawn),inactive,–
CCn1c(SCC(=O)NCCOC)nc2sc(C)c(C)c2c1=O,"inconclusive [rising, single point]",–
COc1cccc(/C=N/Nc2nc3ccccc3[nH]2)c1O,inactive,–
COc1ccccc1N1CCN(C(=O)c2cc3c(s2)-c2ccccc2OC3)CC1,inactive,–
CCCOc1ccc(C2C(C(=O)c3cc4ccccc4o3)=C(O)C(=O)N2c2cc(C)on2)cc1 (stereo not drawn),–,"inactive: -9.6% [at 0.46 µM, 0% is enzyme alone, no compound]"
O=C(NCCc1ccccc1)c1c(O)c2ccccc2[nH]c1=O,"inconclusive [rising, single point]",–
CCCCn1c(-c2ccc(Cl)cc2)nc2c(=O)n(C)c(=O)[nH]c21,"inconclusive [rising, full curve]",–
CC(=O)N1CCN(CC(=O)Nc2cc([N+](=O)[O-])ccc2Cl)CC1,inactive,–
O=C1NC(=S)SC1=C1CCCCCC1,inactive,–
O=C(NCc1cccs1)Nc1cccs1,"inconclusive [rising, single point]",–
O=C(NCc1cccnc1)c1sc2cc(Cl)ccc2c1Cl,"inconclusive [rising, single point]",–
COc1cc(-n2cnnn2)ccc1S(=O)(=O)N1CCOCC1,"inconclusive [rising, single point]",–
Oc1c(Br)cc(Br)cc1/C=N/NC(=S)N[C@H]1CC2C=CC1C2 (stereo partly drawn),inactive,–
COc1ccc(COC(=O)NC2CCN(S(=O)(=O)c3ccc(OC)cc3)CC2)cc1,active: 20 µM,–
Cc1ccc(CN(C)C(=O)c2cc(COc3ccc(F)cc3Cl)on2)o1,"inconclusive [rising, single point]",–
O=C(c1cccc([N+](=O)[O-])c1)c1ccc2c(c1)C(=O)N(c1c[nH]c(=O)[nH]c1=O)C2=O,"inconclusive [rising, single point]",–
